From paper PMC3431376
No constants are given. Whether binding was seen depends on the method and setting. Binding seen in cells or lysates may run through a third protein. Some binding calls cover weakened binding; strength is not graded here.

By UniProt entry, the sequences of proteins in these tests, tags left out. Where a name states a change or a piece, a line headed by the entry shows the natural chain unless it says otherwise. Residues count along the entry.
UniProt Q14247: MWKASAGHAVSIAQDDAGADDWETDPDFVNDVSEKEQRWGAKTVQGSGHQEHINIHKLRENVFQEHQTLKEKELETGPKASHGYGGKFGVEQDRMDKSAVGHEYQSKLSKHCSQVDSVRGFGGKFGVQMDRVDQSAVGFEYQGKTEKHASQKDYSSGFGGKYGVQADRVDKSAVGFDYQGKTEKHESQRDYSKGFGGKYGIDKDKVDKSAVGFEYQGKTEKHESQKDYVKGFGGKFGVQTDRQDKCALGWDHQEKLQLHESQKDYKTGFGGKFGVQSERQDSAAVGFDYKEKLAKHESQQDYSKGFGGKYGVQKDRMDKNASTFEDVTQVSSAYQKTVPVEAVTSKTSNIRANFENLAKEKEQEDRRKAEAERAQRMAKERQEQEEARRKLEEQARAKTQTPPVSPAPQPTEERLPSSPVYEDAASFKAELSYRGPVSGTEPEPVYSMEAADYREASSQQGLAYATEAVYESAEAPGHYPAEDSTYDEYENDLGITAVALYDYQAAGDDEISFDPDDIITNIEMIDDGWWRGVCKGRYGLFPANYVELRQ
UniProt Q60598: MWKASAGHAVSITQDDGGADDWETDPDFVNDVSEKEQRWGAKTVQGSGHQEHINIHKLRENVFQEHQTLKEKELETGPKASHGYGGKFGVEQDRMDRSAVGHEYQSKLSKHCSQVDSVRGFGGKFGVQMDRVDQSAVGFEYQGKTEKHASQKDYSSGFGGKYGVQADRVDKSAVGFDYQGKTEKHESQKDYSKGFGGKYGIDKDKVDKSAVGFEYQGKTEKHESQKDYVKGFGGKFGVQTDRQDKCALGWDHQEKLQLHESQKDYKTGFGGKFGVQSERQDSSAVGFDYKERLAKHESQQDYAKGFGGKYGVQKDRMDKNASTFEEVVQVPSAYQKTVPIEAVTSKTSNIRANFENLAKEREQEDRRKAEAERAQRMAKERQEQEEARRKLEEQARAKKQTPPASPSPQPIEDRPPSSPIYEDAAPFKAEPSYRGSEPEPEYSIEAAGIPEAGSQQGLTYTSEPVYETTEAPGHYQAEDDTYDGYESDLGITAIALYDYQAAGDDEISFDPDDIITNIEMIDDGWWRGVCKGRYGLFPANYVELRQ
FLAG-cortactin carboxyl terminal (CT) (amino acids 350-546): residues 350-546 of Q60598
UniProt O54967: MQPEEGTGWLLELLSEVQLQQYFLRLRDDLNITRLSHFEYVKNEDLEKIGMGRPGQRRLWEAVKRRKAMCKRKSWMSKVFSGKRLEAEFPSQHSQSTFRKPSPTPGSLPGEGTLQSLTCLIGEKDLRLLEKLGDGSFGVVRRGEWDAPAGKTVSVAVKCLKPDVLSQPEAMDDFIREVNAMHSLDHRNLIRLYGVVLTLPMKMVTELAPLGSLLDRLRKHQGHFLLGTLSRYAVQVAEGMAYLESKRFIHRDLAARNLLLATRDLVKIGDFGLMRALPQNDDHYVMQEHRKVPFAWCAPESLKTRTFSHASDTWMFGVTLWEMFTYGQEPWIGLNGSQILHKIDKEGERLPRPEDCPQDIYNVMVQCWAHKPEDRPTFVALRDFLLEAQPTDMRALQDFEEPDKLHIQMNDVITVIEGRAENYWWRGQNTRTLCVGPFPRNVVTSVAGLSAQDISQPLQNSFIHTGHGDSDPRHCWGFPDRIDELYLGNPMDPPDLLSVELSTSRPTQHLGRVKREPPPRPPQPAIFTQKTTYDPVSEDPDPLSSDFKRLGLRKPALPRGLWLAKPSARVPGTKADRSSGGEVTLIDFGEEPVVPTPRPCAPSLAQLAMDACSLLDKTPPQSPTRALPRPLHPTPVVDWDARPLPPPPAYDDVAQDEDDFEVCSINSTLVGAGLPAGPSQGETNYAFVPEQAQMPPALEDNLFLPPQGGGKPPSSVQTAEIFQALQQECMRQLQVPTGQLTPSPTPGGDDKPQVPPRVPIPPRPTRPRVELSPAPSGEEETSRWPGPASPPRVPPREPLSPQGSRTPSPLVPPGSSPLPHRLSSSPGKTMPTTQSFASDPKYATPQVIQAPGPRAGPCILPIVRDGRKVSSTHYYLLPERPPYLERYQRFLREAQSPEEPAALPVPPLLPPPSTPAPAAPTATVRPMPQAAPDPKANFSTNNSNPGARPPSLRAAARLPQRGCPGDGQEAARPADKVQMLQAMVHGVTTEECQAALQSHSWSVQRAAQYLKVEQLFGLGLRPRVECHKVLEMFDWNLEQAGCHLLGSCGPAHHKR

Assays:
[1] = biological target: endogenous cortactin (human (endogenous in 1483 and 293T)) (UniProt Q14247); test: co-IP; endogenous cortactin immunoprecipitated with anti-cortactin antibody and Protein A/G beads from lysates of 1483 cells transfected with Myc-ACK1; NP40 buffer (20 mM HEPES-KOH pH 7.8, 50 mM KCl, 1 mM EDTA, 1% NP40), 4°C; blot with anti-Myc
[2] = biological target: FLAG-cortactin full length (FL) (murine) (UniProt Q60598); test: co-IP; anti-FLAG M2 affinity gel on clarified lysates of 293T cells coexpressing Myc-ACK1 and FLAG-cortactin constructs; NP40 buffer, 4°C; blots with anti-ACK1 and anti-Myc
[3] = biological target: FLAG-cortactin W525K (SH3-binding deficient) (murine) (UniProt Q60598); test: as above
[4] = biological target: FLAG-cortactin carboxyl terminal (CT) (amino acids 350-546) (murine) (UniProt Q60598); test: as above
[5] = biological target: endogenous cortactin (human (endogenous in 1483 and 293T)) (UniProt Q14247); test: co-IP; 293T cells transfected with Myc-ACK1; Protein A/G beads bound to anti-cortactin antibody against beads alone; blot for ACK1 and cortactin

Myc-tagged ACK1 (murine activated Cdc42-associated kinase 1) (from UniProt O54967 1-1055) (enzyme)
binding [1]: binds
binding [2]: binds
binding [3]: no binding
binding [4]: binds
binding [5]: binds
